In article PMC6753193 (Frontiers in Microbiology, 2019):

What was measured:
[1] = Procedure: 1E7-07 or 1E7-03 (10 μM) stability at various pH was tested at 37°C in sodium acetate-acetic acid buffer (pH = 4), NaH2PO4/Na2HPO4 buffer (pH = 7) and NaHCO3/NaOH buffer (pH = 10). Samples (100 μl) were collected at different time points up to 48 h, and evaporated to dryness using a SpeedVac concentrator immediately. The pellets were resolved in 100 μl of acetonitrile, vortexed for 2 min, then centrifuged at 13,000 × g for 5 min. The supernatant was transferred to a clean tube for LC-MS analysis.
We next compared stability of 1E7-07 to 1E7-03 in human and mouse serum at 37°C during 24 h incubation. Compounds (10 μM) were added to serum and aliquots were collected at different time points. Compounds were extracted from serum after total protein was precipitated with acetone, and quantified using LC/FT-MS ([Lin et al., 2017]). We identified 1E7-07 degradation products that were observed during incubation in mouse serum and in buffers with pH 4, pH 7, and pH 10 for 48 h at 37°C (Figure 2A). […] 1E7-03 was degraded by 90% in less than 30 min and by 100% in 6 h. […]
FIGURE 2 Cytotoxicity and stability of 1E7-07. […] Samples were collected at different time points, and compounds were extracted and quantified by LC/FT-MS analysis. […] Samples were processed and analyzed by LC/FT-MS. […] Remaining compounds were extracted and quantified by LC/FT-MS analysis.

[2] = ref Ammosova et al., 2018; cited from earlier work

## COc1ccc(C=C2CCc3c2nc2ccccc2c3C(=O)OC(C)C(=O)NC2CC2)cc1OC (centres unmarked) [1E7-07]
[1]
  stability at different pH: overall better stability

## CCNC(=O)NC(=O)C(C)OC(=O)c1c2c(nc3ccccc13)/C(=C\c1cccc([N+](=O)[O-])c1)CCC2 (centres unmarked) [1E7]
[2]
  toxicity: toxic
